{
  "source": "the RNAGym collection of RNA variant scans (doi:10.1093/nar/gkz1192)",
  "parents": {"B1": {"name": "CPEB3 Ribozyme (parent)", "chain": "UAACAGGGGGCCACAGCAGAAGCGUUCACGUCGCAGCCCCUGUCAGAUUCUGGUGAAUCUGCGAAUUCUGCUGUAUAUCUC"}},
  "note": "Read counts are not given, so values of variants with three or more changes are uncertain.",
  "data": [
    {"variants_of": "B1", "assay": "self-cleavage, relative activity (ratio to wild type); higher = more cleavage; in vitro, sequencing", "summary_of_the_method": "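After error-prone PCR and barcoding, CPEB3 ribozyme mutant libraries were transcribed with T7 RNA polymerase at 37°C for 5 hours, then given 15 min with DNase I before an EDTA stop, and they cleaved during both steps. Reverse transcription with template switching preceded Illumina sequencing. Relative activity divides a variant's cleaved/total read fraction by the unmutated ribozyme's. At least 5 reads were required per variant, and three batches were averaged.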", "values": [
      {"variant": "UAACAGGGGGCCACAGCAAAAGCGUUCACGUCGCAGCCCCUGUCAGACUCUGGUGAAUCUGCGAAUUCUGCUGUAUAUUUC", "note": "[G19A U48C C79U]", "self-cleavage": 0.07},
      {"variant": "UAACAGGGGGCCACAGCAUAAGCGUUCACGUCGCAGCCCCUGUCAGAUCCUGGUGAAUCUGCGAAAUCUGCUGUAUAUCUC", "note": "[G19U U49C U66A]", "self-cleavage": 0.07},
      {"variant": "UAACAGGGGGCCACAGCAUAAGCGUUCUCGUCGCAGCCCCUGUCGGAUUCUGGCGAAUCUGCGAAUUCUGCUGUAUAGCUC", "note": "[G19U A28U A45G U54C U78G]", "self-cleavage": 0.14},
      {"variant": "UAACAGGGGGCCACAGCAAAAGCGUUCACGUCGCAGCCCCUGUCAGAUCCUGGUGAAUAUGCGAAUUCUGCUGUAUAUCUC", "note": "[G19A U49C C59A]", "self-cleavage": 0.14},
      {"variant": "UAACAGGGGGCCACAGCACAAGCGCCCACGUCGCAGCCCCUGUCAGAUUCUGGUGAAUCUGCGAAUUCUGCUGUAUAUCUC", "note": "[G19C U25C U26C]", "self-cleavage": 0.34},
      {"variant": "UAACAGGGGGCCACAGCAAAAGCGUUCACGUCGAUGCCCCUGUCGGAUUCUGGUGAAUCUGCGAAUUCUGCAGUAUAUCUC", "note": "[G19A C34A A35U A45G U72A]", "self-cleavage": 0.21},
      {"variant": "UAACAGGGGGCCACAGCAAAAGCGUACACGUCGCAGCCCCUGUCAGAUUCUGGUGUAUCAGCGAACUCCGCUGUAUAUCUC", "note": "[G19A U26A A56U U60A U66C U69C]", "self-cleavage": 0.08},
      {"variant": "UAACAGGGGGCCACAGCAUAAUCGUACACGUCGCAGCCCCUGUCAGAUUCUGGUGAAUCUGCGAAUUCUGCUGUAUAUCCC", "note": "[G19U G22U U26A U80C]", "self-cleavage": 0.07},
      {"variant": "UAACAGGGGGCCACAGCAUAAGCGUUCACGUCGCAGCCCCUGUCAGAUUCUGGAGAAUCUGCGAAUUCUGCUAUAUAUCUC", "note": "[G19U U54A G73A]", "self-cleavage": 0.73},
      {"variant": "UAACAGGGGGCCACAGCAAAAGCGUUCAGGCCGCAGCCCCUGUCAGAUUCUGGUGAAUCUGCGAAUUCUGCUGUAUAUCUC", "note": "[G19A C29G U31C]", "self-cleavage": 0.15},
      {"variant": "UAACAGGGGGCCACAGCAUAAGCGUUCAAGUCGCAGCCCCCGUCAGAUUCUGGUGAGUCUGCGAAUCCUGCUGUAGAUCUC", "note": "[G19U C29A U41C A57G U67C U76G]", "self-cleavage": 0.08},
      {"variant": "UAACAGGGGGCCACAGCAAAAGCGCUCACGUCGCGGCCCCUGUCAGAUUCUGGUGAAUCUGCGAAUUCUGCUGUAUAUCUC", "note": "[G19A U25C A35G]", "self-cleavage": 0.16},
      {"variant": "UAACAGGGGGCCACAGCAAAAGCGCUCGCGUCGAAGCCCCUGUCGGAUUCUGGUGAAUCUGCGAAUUCUGCAGUAUAUCUC", "note": "[G19A U25C A28G C34A A45G U72A]", "self-cleavage": 0.13},
      {"variant": "UAACAGGGGGCCACAGCAAAAGCGUACGCGCCGCAGCCCUUGUCAGAUUCUGGUGAAUCUGCGAAUCCUGCUGUAAAUCUC", "note": "[G19A U26A A28G U31C C40U U67C U76A]", "self-cleavage": 0.04},
      {"variant": "UAACAGGGGGCCACAGCAUAAGCAUUCGCGUCGCAGCCCCUGUCGGAUUCUGGUGAAUCUGCGAAUUCCGCUGUAUGUCUC", "note": "[G19U G24A A28G A45G U69C A77G]", "self-cleavage": 0.08},
      {"variant": "UAACAGGGGGCCACAGCAUAAGCGUUCGCGUCGCAGCCCCUGUCAGAUUCUGGUGAGUCUGCGAAUUCUGCUGUAUGUCUC", "note": "[G19U A28G A57G A77G]", "self-cleavage": 0.13},
      {"variant": "UAACAGGGGGCCACAGCAUAGGCGUUCACGCCGCAGCCCCUGUCAGAUUAUGGUGAAUCUGCGAAUUCUGCUGUAUAUCUC", "note": "[G19U A21G U31C C50A]", "self-cleavage": 0.21},
      {"variant": "UAACAGGGGGCCACAGCACAAGCGUUCACGCCGCAGCCCCUGUCAGGCUCUGGUGAGUCUGCGAAUUCUGCUGUAUAUCCC", "note": "[G19C U31C A47G U48C A57G U80C]", "self-cleavage": 0.42},
      {"variant": "UAACAGGGGGCCACAGCAAAAGCGUUCACGUCGCAGCCCCUGUCGGAUUCUGGUGAAUCCGCGAAUUCUGCUGUAAAUCUC", "note": "[G19A A45G U60C U76A]", "self-cleavage": 0.13},
      {"variant": "UAACAGGGGGCCACAGCAUAAGCGUUCACGUCGCAGCCCCAGUCAGAUUCUGGUGAAUCUGCGAAUUCUGCUGUAUGUCUC", "note": "[G19U U41A A77G]", "self-cleavage": 0.42},
      {"variant": "UAACAGGGGGCCACAGCAUAAGCGUUCACGUCGCAGCCCCUGUCCUAUUCUGGUGAAUCUGCGAAUUCUGCUGUAUAUCUC", "note": "[G19U A45C G46U]", "self-cleavage": 0.18},
      {"variant": "UAACAGGGGGCCACAGCACAAGCGUUCUCGUCGCAGCCCCCGUCAGAUUCUGGUGAAUCUGCGAAUUCUGCUGUAUAUCUC", "note": "[G19C A28U U41C]", "self-cleavage": 0.19},
      {"variant": "UAACAGGGGGCCACAGCACAAGCGUUCUCGUCGCAGCCCCGGUCAGAUUCUGGUGAAUCUGCGAAUUCUGCUGUAUAUCUC", "note": "[G19C A28U U41G]", "self-cleavage": 0.07},
      {"variant": "UAACAGGGGGCCACAGCAUAAGCGUUCACGUCGCAGCCCCUGUCAGAUUCUGGUGAAUCUGCGAAUUCUGCAGUACAUCUC", "note": "[G19U U72A U76C]", "self-cleavage": 0.28},
      {"variant": "UAACAGGGGGCCACAGCACGAGCGUUCACUUCGCAGCCCCUGUCAGAUUCUGGUGAAUCUGCGGACUCAGCUGUAUAUCUC", "note": "[G19C A20G G30U A64G U66C U69A]", "self-cleavage": 0.06},
      {"variant": "UAACAGGGGGCCACAGCACAAGCGUACUCGUCGCAGCCCCCGUCAGAUUCUGGUGAAUCUGCGAAUUCCGCAGUAUAUCUC", "note": "[G19C U26A A28U U41C U69C U72A]", "self-cleavage": 0.05},
      {"variant": "UAACAGGGGGCCACAGCACAAGCGUUCACGUCGCAGCCCCUGUCAGAUACUGGUGAAUCUGCGAAUCCUGCUGUAUAUCUC", "note": "[G19C U49A U67C]", "self-cleavage": 0.14},
      {"variant": "UAACAGGGGGCCACAGCACAAGCGUUCACGUCGCAGCCCCUGUCAGAUUCUGGAGUAUCUGCGGAUUCUGCCGUAUACCUC", "note": "[G19C U54A A56U A64G U72C U78C]", "self-cleavage": 0.08},
      {"variant": "UAACAGGGGGCCACAGCAGCAGCGUUCACGUCGCAGCCCCUGUCAGAUUCUGGUGAGUCUGCGAAUUCUGCUGUAUAACUC", "note": "[A20C A57G U78A]", "self-cleavage": 0.03},
      {"variant": "UAACAGGGGGCCACAGCAUAAGCGUUCACGUCGCAGCCCCUGUCAGAUUCUGGUGAAUCUGCGAAUUCAGCCGUAUAUCUC", "note": "[G19U U69A U72C]", "self-cleavage": 0.12},
      {"variant": "UAACAGGGGGCCACAGCAUAAGCGUUCACGUCGCAGCCCCAGUCAGAUUCUGGUGAAUCUGCGAAUUCUGCUGUAUACCUC", "note": "[G19U U41A U78C]", "self-cleavage": 0.2},
      {"variant": "UAACAGGGGGCCACAGCACAGGCGUUCAUGUCGCAGCCCCUGUCAGAUUCUGGUGAGUCUGCGAAUACUGCUGUAUAUCUC", "note": "[G19C A21G C29U A57G U67A]", "self-cleavage": 0.05},
      {"variant": "UAACAGGGGGCCACAGCAAAAGCGUUCACGUCGCAGCCCCAGUCAGAUUCUGGUGUAUCUGCGAAUUCUGCUGUAUAUCUC", "note": "[G19A U41A A56U]", "self-cleavage": 0.16},
      {"variant": "UAACAGGGGGCCACAGCAUAAGUGUUCACGUCGCAGCCCCUGUCAGAUUCUGGUGAUUCUGCGAAUUCUGCUGUAUAUCUC", "note": "[G19U C23U A57U]", "self-cleavage": 0.47}
    ]}
  ]
}
